# In article PMC12136788:
# Some of the results follow.
# B1: ENSG00000070961:be:win_5051|3pUTR|ENSG00000070961|bound_else_gene|NA|bound_elsewhere_windowed (ssRNA)
# RNA: GGGAGUUCUACAGUCCGACGAUCUUGAAUUUAGUUUGUCUAAAAUAGUCUCACAGGUAAAAAACAUAACAACAAUGACCACCAUUGUCUUUGAUACAUUUAUUUUAAUUCUUAAGUGGCCAAAUAACAGAUUAGGUAAAAUGACAACAGAGGAUUGAGCAUCA
# B2: chr7:127580627:127582013:-|three_prime_utr|ENSG00000179562|control|control|control (ssRNA)
# RNA: GGGAGUUCUACAGUCCGACGAUCAGGAGUCUUCAAUGUGGGAAGGGAUUUUCUGCCAAAUGCCAUUAAUGCUGCUUUAUCCUUAGGCCCUAGAGAUACUGAAAGUCCUGGGGCAGUAUCUUCUGAUGGUGUGCAUGUGAGGAGCAACAGAGGAUUGAGCAUCA
# B3: chr12:111683145:111683307:-|CDS|ENSG00000089234|control|control|control (ssRNA)
# RNA: GGGAGUUCUACAGUCCGACGAUCAAAGACGACACUAGCCUCAGCUGUAGCCUGUUUAGAAGGCAAGUCACCAGGAGAGAAAGUAGCGAUUAUCCAUCAGCAUCUCGGCCGUCGAGAAAUGACAGAUGUGAUCAUUGAGACCAUCAACAGAGGAUUGAGCAUCA
# B4: chr2:96373863:96373964:+|3pUTR|ENSG00000121152|unk|FALSE|unique (ssRNA)
# RNA: GGGAGUUCUACAGUCCGACGAUCUAGAACUGGCAAAAUAUUUGAGUGUCCACUAGAUGAGUAUCAGACCUAGUCCUUACCCUUAGGGGGAUGCAGUCCUGGUUGUUAUCCAGGAUACACACCUGUCAGUAUAAGGCAGAAGAUCAACAGAGGAUUGAGCAUCA
# B5: chr8:7990417:7990620:-|CDS|ENSG00000205989|control|control|control (ssRNA)
# RNA: GGGAGUUCUACAGUCCGACGAUCGAUGUCUGCAACAUAGUAGAAGAUCAAAUUGGUGCCUGCCGAAGAAGGAUGAAGUGCUGUAGAGCAUGGUGGAUUUUAAUGCCAAUUCCAACACCACUUAUCAUGUCAGAUUAUCAAGAACAACAGAGGAUUGAGCAUCA
# B6: chr7:6403584:6403671:+|3pUTR|ENSG00000136238|msi1_unk|FALSE|overlapping (ssRNA)
# RNA: GGGAGUUCUACAGUCCGACGAUCUUUUCUAGUAACUAGGUGUAAAAAUCAUGUGUUGCAGCUUUAUAGUUUUUAAAAUAUUUUAGAUAAUUCUUAAACUAUGAACCUUCUUAACAUCACUGUCUUGCCAGAUUACCGACACUGCAACAGAGGAUUGAGCAUCA
# B7: chr2:218454035:218454136:-|3pUTR|ENSG00000135913|msi1|total|mutant (ssRNA)
# RNA: GGGAGUUCUACAGUCCGACGAUCGAGAUUUCUUCACACAGUAUGUUCAUCAUAUAUCAUCAUCAUUAUUAUGGUGGUAAAGACCGAAUCUUUUUUCUUUUUUGUCAUUCUGCCAUGGAGCAGCAUUACCCUAAUGGAUUGCAACAACAGAGGAUUGAGCAUCA
# B8: chr4:140153917:140154018:-|5pUTR|ENSG00000196782|msi1|total|mutant (ssRNA)
# RNA: GGGAGUUCUACAGUCCGACGAUCUUUGCAGUCGCCUCGGACUGUCCAUGUGUUUACUUCCCCCAGCCCGAGGAUUCGAUAUCCCGGUUCCUGUGAAAUGCAACUGAGCAGCCAAAGUACUUUGAGAACACGGGGCGGCAUAAACAACAGAGGAUUGAGCAUCA
# B9: chr14:102225094:102226328:-|three_prime_utr|ENSG00000080823|control|control|control (ssRNA)
# RNA: GGGAGUUCUACAGUCCGACGAUCCCUCCCAUCUGCUCUGCUGUCCCCACACCUGCGGUGCAGCCAGCCUGCCACAAGGCAGCUAGAGUCCAGCUAGACCCACCCCUGGCACGGCCGACCUCUUCCUGGCUUCUUCUGGGCCUACAACAGAGGAUUGAGCAUCA
# B10: chr6:105097214:105097376:-|3pUTR|ENSG00000112276|msi1|total|mutant (ssRNA)
# RNA: GGGAGUUCUACAGUCCGACGAUCCAUGCCUUGGUUUCCUCUCCCUUCCCUCUUUCCAAUCCUGGUUUCCUAACCUCCUCUUGCCGUAAUUCUCAACUCAACUCAAAGUCCCAAGAAUUUGGAAUGGCCGGAUGCUGUGCGGGGCAACAGAGGAUUGAGCAUCA
# B11: chr10:73917138:73917420:+|3pUTR|ENSG00000122861|msi1|total|mutant (ssRNA)
# RNA: GGGAGUUCUACAGUCCGACGAUCGGAAUGUAUUAUUCUGCAGCAUGACCUGUGACCAGCACUGUCUCAGUUUCACUUUCACACCGAUGUCCCUUUCUUGGCCAGUUAUCCCUUCCUUUCCGCCCCGUUCAUCCAAUCCUCACUCAACAGAGGAUUGAGCAUCA
# B12: chr4:186588032:186588133:-|3pUTR|ENSG00000083857|msi1|FALSE|unique (ssRNA)
# RNA: GGGAGUUCUACAGUCCGACGAUCUUUUUUUACUAUAACCAGGGUUUCAUUCUGUCUUUUUCCACUGAAGUGUGACAUUUUGUUAGUACAUUUCAGUGUAGUCAUUCAUUUCUAGCUGUACAUAGGAUGAAGGAGAGAUCAGAUCAACAGAGGAUUGAGCAUCA
# B13: chr11:69653362:69653473:+|3pUTR|ENSG00000110092|msi1_unk|total|mutant (ssRNA)
# RNA: GGGAGUUCUACAGUCCGACGAUCACUGCCAUGUACCCGUUUCCGUUUUCUCUCCGAACAUUGUAUUACAGAUGCCUUUUUUGCCGUUUUUUUUUUUUUUAUGUGAUCAAUUUUGACUUAAUGUGAUUACUGCUCUAUUCCAAACAACAGAGGAUUGAGCAUCA
# B14: ENSG00000107863:be:win_5001|CDS|ENSG00000107863|bound_else_gene|NA|bound_elsewhere_windowed (ssRNA)
# RNA: GGGAGUUCUACAGUCCGACGAUCAAAUUCUGAAGGAAGUGAAUUAAGUUGCACCGAGGGAAGUUUAACAUCAAGUUUAGAUAGCCGGAGACAGCUCUUCAGUUCCCAUAAACUCAUCGAAUGUGAUACUCUUUCCAGGAAAAACAACAGAGGAUUGAGCAUCA
# B15: ENSG00000070961:be:win_3951|3pUTR|ENSG00000070961|bound_else_gene|NA|bound_elsewhere_windowed (ssRNA)
# RNA: GGGAGUUCUACAGUCCGACGAUCAUUAGCAGAGCUUUAGUUUAUCUCAGUCCUGGAUGGGAGAGAGAGGGAGGAGUAAAACUGGGCAAGACAAAGAGCCCUGGAUCGUUGAAUUGAUAGUUUAAUUUCUGCUGUUGGCUGUUACAACAGAGGAUUGAGCAUCA
# B16: chr2:216672374:216672548:-|3pUTR|ENSG00000115461|msi1|FALSE|unique (ssRNA)
# RNA: GGGAGUUCUACAGUCCGACGAUCUUUUUCUUUUUUUUUUUGAAGACAGCAAUAACCACAGUACAUAUUACUGUAGUUCUCUAUAGUUUUACAUACAUUCAUACCAUAACUCUGUUCUCUCCUCUUUUUUGUUUUCAACUUUAACAACAGAGGAUUGAGCAUCA
# B17: chr2:5695263:5695412:+|3pUTR|ENSG00000176887|msi1_unk|FALSE|overlapping (ssRNA)
# RNA: GGGAGUUCUACAGUCCGACGAUCUGGUGAUAUAGACCUCAGAGCUGUUAUCUUAGUUUAAAGAUUGUAUAUGUACUGUACUAUAGUAGGACUUUAUGUAUCUCAUACGCUGUGAUGUGGAUGGGGCCCCAGAUGGAAGGUUUGCAACAGAGGAUUGAGCAUCA
# B18: chr13:28712679:28713550:-|CDS|ENSG00000139508|control|control|control (ssRNA)
# RNA: GGGAGUUCUACAGUCCGACGAUCUGAAGUUUUUAUAGGUUAUGGAUCAGCUUUGGGUAGUGCCUCUUUUUUGACUAGUUUCCUAGGAAUAUGGCUUUUUUCUUAUUGUAUGGAAGAUAUUCAUAUGGCCUUCAUUGGGAUUUUCAACAGAGGAUUGAGCAUCA
# B19: chr13:110149936:110150037:-|3pUTR|ENSG00000187498|msi1|total|mutant (ssRNA)
# RNA: GGGAGUUCUACAGUCCGACGAUCUUCUUGUAUUAUAAUUAAUUUUCUACCCCCAGAGAUAAAUGUUUGUUUAUAUCACUGUCCCGCUGUUUCAAAAUUCCGGUCCCUUGGUCUGUACAAAUAACCGCAAUGUAAAAAUGGUUUCAACAGAGGAUUGAGCAUCA
# B20: chr1:119916538:119916684:-|CDS|ENSG00000134250|unk|FALSE|bound_elsewhere (ssRNA)
# RNA: GGGAGUUCUACAGUCCGACGAUCAGAGACACCUCUGUUUCUUGCUGCCCGGGAGGGGAGCUAUGAAGCAGCCAAGAUCCUGUUAGACCAUUUUGCCAAUCGAGACAUCACAGACCAUAUGGAUCGUCUUCCCCGGGAUGUGGCCAACAGAGGAUUGAGCAUCA
# B21: chr7:5527443:5527567:-|3pUTR|ENSG00000075624|msi1_unk|FALSE|overlapping (ssRNA)
# RNA: GGGAGUUCUACAGUCCGACGAUCCAUCCCCCAAAGUUCACAAUGUGGCCGAGGACUUUGAUUGCACAUUGUUGUUUUUUUAAUAGUCAUUCCAAAUAUGAGAUGCGUUGUUACAGGAAGUCCCUUGCCAUCCUAAAAGCCACCCAACAGAGGAUUGAGCAUCA
# B22: chr21:34788506:34788607:-|3pUTR|ENSG00000159216|msi1|total|mutant (ssRNA)
# RNA: GGGAGUUCUACAGUCCGACGAUCUUGUUAAUGCCUAUAACUUUUUUUCAAUUUUUUUGUGUGUGUUUCUAAGGACUUUUUCUCCGGUUUGCUAAAUACUGCCGGGAAAAAAAUGCUUCUUUCUACUUUGUUUAUUUCCGACUUCAACAGAGGAUUGAGCAUCA
# Biological target: MSI1 full-length (mouse, UniProt Q61474 1-362)
# Chain of UniProt Q61474 (Q61474 whole entry): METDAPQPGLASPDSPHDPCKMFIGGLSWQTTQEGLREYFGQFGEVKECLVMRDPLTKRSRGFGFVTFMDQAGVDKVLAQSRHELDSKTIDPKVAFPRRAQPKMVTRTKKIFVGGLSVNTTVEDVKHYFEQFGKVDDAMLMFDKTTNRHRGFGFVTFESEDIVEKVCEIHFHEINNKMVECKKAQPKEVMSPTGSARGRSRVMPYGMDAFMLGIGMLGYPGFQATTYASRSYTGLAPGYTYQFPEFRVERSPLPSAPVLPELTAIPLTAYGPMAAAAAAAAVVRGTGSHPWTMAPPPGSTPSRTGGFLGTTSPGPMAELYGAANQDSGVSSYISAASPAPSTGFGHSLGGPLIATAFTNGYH
# Assay: nsRBNS (natural sequence RNA bind-n-seq); RBNS binding buffer (assumed for nsRBNS): 25 mM Tris pH 7.5, 150 mM KCl, 3 mM MgCl2, 0.01% Triton X-100, 500 ug/ml BSA, 20 U/ml SUPERase-In, 4 C; UNK is unkempt and MSI1 is Musashi-1; names of the RNAs are library labels; protein concentration not given here; high values mean tight binding
row,Binder,binding signal
1,B1,5.22 enrichment R
2,B2,0.694 enrichment R
3,B3,1.34 enrichment R
4,B4,0.774 enrichment R
5,B5,0.446 enrichment R
6,B6,4.84 enrichment R
7,B7,0.306 enrichment R
8,B8,0.335 enrichment R
9,B9,0.575 enrichment R
10,B10,0.628 enrichment R
11,B11,0.747 enrichment R
12,B12,2.79 enrichment R
13,B13,1.65 enrichment R
14,B14,0.365 enrichment R
15,B15,1.71 enrichment R
16,B16,21.2 enrichment R
17,B17,2.31 enrichment R
18,B18,2.38 enrichment R
19,B19,3.28 enrichment R
20,B20,0.541 enrichment R
21,B21,0.903 enrichment R
22,B22,0.628 enrichment R
